Hit rate of the full screen: of about 48,000 compounds, about 1,200 (2.5%) were called active. About 2% were inconclusive and are not listed.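 The calls were made as follows: active = activation of at least 60% and not above a set upper limit (about 1 call in 100 departs from these limits); inconclusive = activation of 40% to 60%, or above that upper limit; inactive = activation under 40%.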 The list shows a part of the results.

UniProt O75388, sequence (O75388 whole entry, looked up, the tested form may be a part): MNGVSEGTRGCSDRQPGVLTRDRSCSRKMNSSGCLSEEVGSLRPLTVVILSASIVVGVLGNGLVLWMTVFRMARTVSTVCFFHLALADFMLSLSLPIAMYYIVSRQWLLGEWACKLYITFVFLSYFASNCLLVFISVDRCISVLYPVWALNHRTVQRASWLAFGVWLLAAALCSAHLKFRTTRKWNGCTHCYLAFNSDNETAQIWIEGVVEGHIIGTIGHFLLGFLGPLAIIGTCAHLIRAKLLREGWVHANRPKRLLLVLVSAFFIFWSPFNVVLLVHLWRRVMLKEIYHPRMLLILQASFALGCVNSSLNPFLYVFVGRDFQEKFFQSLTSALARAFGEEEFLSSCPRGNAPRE

For the assay, the target named is Probable G-protein coupled receptor 32 (Homo sapiens) (UniProt O75388). As to the kind of experiment: qHTS for Agonists of Human Resolvin D1 Receptor DRV1. Also: 0% is about no effect. To be noted: CHO-K1 GPR32 beta-arrestin PathHunter luminescence, 90 min; at 76.9 µM; active compounds read high; zero percent set by DMSO-only wells. The method, boiled down:
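Agonism was scored by beta-Gal fragment complementation (chemiluminescent read, 1 h detection at ambient temperature) reporting beta-arrestin binding to GPR32 in engineered CHO-K1 cells. Compound treatment lasted 90 min at 37 C, normalized to a DMSO basal control.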
Regarding `COc1ccc(C(=O)Nc2ccc(S(=O)(=O)Nc3cc(C)nc(C)n3)cc2)cc1`, the activation was inactive: -22.7%.

As for `O=C(CCS(=O)(=O)c1cc2c(cc1Cl)NC(=O)CO2)NCCc1ccccc1`, the activation is inactive: -5.6%. Under `CCOC(=O)c1c(C)[nH]c(CCC(=O)Nc2ccccc2C(F)(F)F)c1C` stands inactive: -3.01%; under `CCc1ccc(NC(=O)CSc2nnc3[nH]c(=O)cc(-c4ccccc4)n23)cc1`, inactive: -12.7%.

Regarding `COC(=O)c1ccc2c(=O)n3nc(Nc4ccc(F)cc4F)sc3nc2c1`, the activation was inactive: -2.93%. On to `COc1ccc(CN2CCc3c(c(=O)n4ncc(C(=O)N5CCN(c6ccccc6F)CC5)c4n3C)C2)cc1`, for which the activation is inactive: -10.3%. For the compound `COc1cc(CNc2ccc3[nH]c(=O)[nH]c3c2)ccc1OCc1ccc(F)cc1Cl`, the activation was inactive: 10.9%. Regarding `COc1ccc(NC(=O)c2c(NC(=O)C(F)(F)F)sc3c2CCCCC3)cc1`, the activation is inactive: 28.6%.

In the case of `CCCCC1CCC(C(=O)N2CC(=O)Nc3ccc(C)cc3C2c2ccc(F)cc2)CC1` (configuration not stated), the activation was inactive: -27%.

Consider `COc1ccc(Cn2ccc3nc(C)c(C(=O)N4CCN(c5cccc(OC)c5)CC4)cc3c2=O)cc1`, for which the activation was inactive: -14.3%.

As for `Cc1cccc(N2CCN(C(=O)c3nn(C)c4c3CS(=O)(=O)c3ccccc3-4)CC2)c1C`, the activation was inactive: 3.23%. With `Cc1cc(NS(=O)(=O)c2ccc(N)cc2)no1`, the activation is inactive: 8.54%. Under `CS(=O)(=O)N(Cc1ccccc1)c1ccc(C(=O)Nc2cccc(Cl)c2)cc1` stands inactive: 18.1%; under `COc1ccc(CNC(=O)c2ccc3c(O)c(S(=O)(=O)c4ccccc4)c(=O)[nH]c3c2)cc1`, inactive: -2.43%; under `CC(=O)c1cccc(NC(=O)CN2C(=O)CCc3cc(S(=O)(=O)N4CCCCC4)ccc32)c1`, inactive: -17.4%. Consider `O=C(Nc1cccc(C(F)(F)F)c1)Nc1nnc(N2CCCCCC2)s1`, for which the activation is inactive: 3.39%. `COCCCNC(=O)CN1C(=O)c2cccnc2Sc2ccccc21`: the activation was inactive: -5.56%. `COc1ccccc1N1CCN(C(=O)c2cc(-c3ccc(C)c(F)c3)on2)CC1`: the activation was inactive: -16%. Under `COc1cccc2cc(C(=O)Nc3ccc(CC(=O)O)cc3)c(=O)oc12` stands inactive: -14.3%; under `Cc1ccc(NC(=O)CSc2nc(-c3ccco3)cc(C(F)(F)F)n2)c(C)c1`, inactive: -17.9%; under `COc1ccc(-c2cc(C(=O)Nc3sc4c(c3C(N)=O)CCCC4)no2)cc1`, inactive: 1.03%. As for `CCN(CC)CCNC(=O)C(=O)Nc1c2c(nn1-c1ccc(F)cc1)CSC2`, the activation was inactive: -25.6%. As to `CCOc1ccc(S(=O)(=O)N2Cc3ccccc3CC2C(=O)Nc2ccc(NC(C)=O)cc2)cc1` (configuration not stated), the activation was inactive: 8.16%. Regarding `CCCCN1CC(c2nc3ccccc3n2CCCCOc2cc(C)cc(C)c2)CC1=O` (configuration not stated), the activation is inactive: 6.68%. Take `CC(C)(C)C(=O)C(Oc1ccc(Cl)cc1)n1ccnc1` (configuration not stated): the activation is inactive: -67.1%. As for `CCNC(=O)c1c(NC(=O)Cc2coc3ccc(CC)cc23)sc2c1CCCC2`, the figure is inactive: -1.62%; as for `Cc1oc2ncn(CC(C)C)c(=O)c2c1C(=O)N(CCN(C)C)Cc1ccccc1`, inactive: -7.86%; as for `CCCCNC(=O)c1ccc2c(c1)N(CC)C(=O)c1ccccc1S2`, inactive: -18.5%.

With `Cc1ccc2c(c1)N(C(=O)N1CCC(C(=O)NCc3ccccc3C)CC1)CC(C)O2` (configuration not stated), the activation was inactive: 7.27%. For `CCCCNC(=O)c1c(-c2ccccc2)c(-c2ccccc2)nn(C)c1=O`, the activation was inactive: -24.9%. With `CC(=O)N1CCCc2cc(S(=O)(=O)N3CCN(c4ccccc4F)CC3)ccc21`, the activation is inactive: -0.0187%. Under `COc1cccc(C2C(C(=O)Nc3ccc(Cl)cc3)=C(C)Nc3nc4ccccc4n32)c1OC` (configuration not stated) stands inactive: -2.19%; under `COc1ccc(N2CCN(C(=O)C3CCCN(C(=O)c4cc5sccc5n4C)C3)CC2)cc1` (configuration not stated), inactive: -8.24%; under `CCOC(=O)c1c(C)n(-c2ccccc2)c2ccc(OC(=O)COc3ccccc3)cc12`, inactive: 9.79%.

As for `NC(=NCCCCCCN=C(N)/N=C(\N)Nc1ccc(Cl)cc1)/N=C(\N)Nc1ccc(Cl)cc1`, the activation was active: 86.5%. Consider `CC(=O)N1c2ccc(S(=O)(=O)NCc3ccccc3Cl)cc2CC1C` (configuration not stated), for which the activation was inactive: 4.78%. For `CCCc1nnc(NC(=O)c2cc(=O)c3ccccc3o2)s1`, the activation was inactive: 2.45%. As to `CC1=C(C(=O)Nc2cccnc2)C(c2cccc(F)c2)n2nc(SCc3ccccc3F)nc2N1` (configuration not stated), the activation is inactive: 3.42%. As for `O=C(CSc1nc(=O)[nH]c2c1CCCC2)NCc1ccccc1Cl`, the figure is inactive: -8.06%.

Regarding `COc1ccc(C)cc1NC(=O)c1cc(S(=O)(=O)N2CCOCC2)cn1C`, the activation was inactive: -23.6%. For the compound `CCCCNC(=O)CN1C(=O)c2cccnc2Sc2ccccc21`, the activation is inactive: -12.1%. Take `COc1ccc(CNC(=O)CCS(=O)(=O)c2cc(Br)cc3c2N(C(C)=O)C(C)C3)cc1` (configuration not stated): the activation was inactive: -8.82%. For the compound `CCOc1ccccc1NC(=O)CCCc1nc(-c2ccccc2Cl)no1`, the activation is inactive: -8.58%. Turning to `COc1cc2[nH]c(=O)n(Cc3ccc(C(=O)N4CCN(c5ccc(Cl)cc5)CC4)cc3)c(=O)c2cc1OC`, the activation is inactive: 0.537%.

Regarding `O=C(Nc1cccc(Cl)c1Cl)c1ccc2c(c1)N(Cc1cccc(Cl)c1)C(=O)c1ccccc1S2=O` (configuration not stated), the activation is inactive: -9.86%. As for `Cc1ccc(NC(=O)c2sc3ncn(Cc4cccc(F)c4)c(=O)c3c2C)c(Br)c1`, the activation was inactive: -0.476%. As to `Cc1ccc(C)c(NC(=O)Cn2nc(C)c3nn(-c4ccc(Cl)cc4)c(C)c3c2=O)c1`, the activation is inactive: -2.55%. On to `Cc1ccc(N(Cc2cccs2)C(=O)C(C)Oc2ccc(Cl)c(C)c2)cc1` (configuration not stated), for which the activation was inactive: -4.09%.

With `CCn1c2ccccc2c2cc(CN3CCN(Cc4cc(OC)c(O)c(OC)c4)CC3)ccc21`, the activation is inactive: -29.2%.

With `COc1ccc(N2CCN(c3ccc(-c4nc(-c5ccccc5)no4)cc3[N+](=O)[O-])CC2)cc1`, the activation is inactive: -12.7%.

Turning to `CCOc1ccc(CCNC(=O)c2cc3c(=O)n(CC)c4ccccc4c3s2)cc1OCC`, the activation was inactive: -3.76%. As for `CCc1cccc(NC(=O)CSc2nncn3c2cc2sccc23)c1`, the figure is inactive: 9.05%; as for `Cc1c(C)n(Cc2ccccc2)c2ccc(C(=O)N3CCN(c4ccc(F)cc4)CC3)cc12`, inactive: -30.1%; as for `Cc1c(C(=O)O)c(O)cc2c1C(=O)c1c(O)c([C@@H]3O[C@H](CO)[C@@H](O)[C@H](O)[C@H]3O)c(O)c(O)c1C2=O`, inactive: -63.8%. In the case of `CC(C)CCNC(=O)c1ccc2c(c1)NC(=O)C(C(C)C)N2` (configuration not stated), the activation is inactive: 2.21%.

For the compound `Cc1ccc(Cl)cc1N1CCN(C(=O)CN2C(=O)COc3ccc(S(=O)(=O)N4CCCCCC4)cc32)CC1`, the activation is inactive: -14.2%.

Consider `COc1ccc(S(=O)(=O)NCCSc2nnnn2-c2ccccc2)cc1OC`, for which the activation was inactive: 16.8%. Take `Cc1ccccc1Nc1c(-c2cccc(Cl)c2)nc2ncccn12`: the activation is inactive: -31%. As for `Cn1cnc(S(=O)(=O)N2CCCC(C(=O)NCc3ccc(Cl)cc3)C2)c1` (configuration not stated), the figure is inactive: -7.39%. Take `CCN(CC)S(=O)(=O)c1ccc2c(c1)N(CC(=O)N1CCN(c3ccc(OC)cc3)CC1)C(=O)CO2`: the activation is inactive: -20.4%. As for `O=C(CSc1nc2ncccc2[nH]1)Nc1cc(F)ccc1F`, the activation is inactive: -4.29%. On to `O=C(CCn1c(=O)c2cccn2c2cccnc21)NCc1ccccc1Cl`, for which the activation was inactive: -8.72%. Under `CCOc1ccc(C(=O)c2cn(CC(=O)Nc3ccc4c(c3)OCO4)c3ccc(OC)cc3c2=O)cc1` stands inactive: 1.47%. Under `COc1cccc(N2CCN(C(=O)C3CCCN(S(=O)(=O)c4cccc5nsnc45)C3)CC2)c1` (configuration not stated) stands inactive: 23.1%; under `Cc1ccc(CNC(=O)CCc2c(C)nn(-c3ccc(N4CCOCC4)nn3)c2C)cc1`, inactive: 0.499%. Under `CCOc1ccc2c(c1)c(=O)c(C(=O)c1ccc(CC)cc1)cn2CC(=O)Nc1ccccc1OC` stands inactive: 8.08%. Take `COc1ccc(OC)c(NC(=O)Cn2c(=O)c3cccn3c3ccccc32)c1`: the activation was inactive: -18.2%. Under `CCn1c(=O)n(-c2ccc3c(c2)OCO3)c2nc(-c3ccc(C(C)C)cc3)nc(C(N)=O)c21` stands inactive: -7.47%. Consider `O=C(Nc1cccc(Cl)c1)C1CCCN(c2nn3cc(-c4ccc(F)cc4)nc3s2)C1` (configuration not stated), for which the activation is inactive: -0.378%. As to `CCOC(=O)C1CCN(C(=O)c2nn(-c3ccc(OC)c(Cl)c3)c(=O)c3c2c2ccccc2n3C)CC1`, the activation is inactive: -8.17%. As to `Cc1ccc(Cl)cc1NC(=O)CSc1nc2ccccc2c2nc(-c3ccccc3)nn12`, the activation was inactive: -16.7%.

With `CCOc1ccc(C(=O)Nc2cc(-c3nc4cc(OC)ccc4o3)ccc2C)cc1[N+](=O)[O-]`, the activation is inactive: 10.4%. As to `Cc1ccc(S(=O)(=O)c2cn(CC(=O)Nc3cccc(Cl)c3)c3ccccc3c2=O)cc1`, the activation was inactive: -4.31%. As for `CC1(C)N=C(SCc2ccc(F)cc2)c2ccccc2N1`, the activation was inactive: -2.75%. Turning to `O=C(Cn1cc(C(=O)C(F)(F)F)c2ccccc21)N1CCCCCC1`, the activation was inactive: -12.5%. For the compound `CC1CCCCN1CCCNC(=O)c1cc(Sc2cccc(Cl)c2)nc2ccccc12` (configuration not stated), the activation is inactive: -13.7%.

On to `CCOc1ccccc1NC1(c2ccccc2)C(=O)c2ccccc2C1=O`, for which the activation is inactive: -32.2%. Turning to `Cc1ccccc1CN1c2ccccc2-c2nc(SCC(=O)c3ccccc3)ncc2S1(=O)=O`, the activation was inactive: 1%. With `O=C(COc1ccc2ccccc2c1)NC1CC(=O)N(c2ccc(F)cc2)C1` (configuration not stated), the activation is inactive: 17.9%. As to `Cc1nc2sccn2c(=O)c1CCN1CCC(=C(c2ccccc2)c2ccc(F)cc2)CC1`, the activation is inactive: -12.9%. Under `Cc1ccccc1OCc1nc2c3cnn(-c4cccc(F)c4)c3ncn2n1` stands inactive: -11%. In the case of `Cc1c(CNC2CCCCC2)c(C(=O)O)c(C)n1Cc1ccccc1F`, the activation was inactive: 19.1%.

The values are drawn from PubChem BioAssay AID1346428 (National Center for Advancing Translational Sciences (NCATS), 2018).
